In a compilation of properties of binary mixtures (doi:10.1016/j.jct.2016.12.008):
Some of these densities may be calculated back from excess volumes.

Assay: xn = mol fraction of the nth substance listed
Settings: 100 kPa

**Q.** For `CC[n+]1ccn(C)c1.N#C[S-]` + O, which mass density (288.15 K, x1 = 0.0006) is on record?
**A.** Its mass density is 999.7 kg/m3.

**Q.** What about the mass density (288.15 K, x1 = 0.0018) of the same compound?
**A.** The mass density was 1000.9 kg/m3.

**Q.** And the mass density (288.15 K, x1 = 0.0024)?
**A.** The mass density was 1001.5 kg/m3.

**Q.** What about the mass density (288.15 K, x1 = 0.003) of the same compound?
**A.** The mass density was 1002 kg/m3.

**Q.** And the mass density (288.15 K, x2 = 0)?
**A.** Its mass density is 1124 kg/m3.

**Q.** What about the mass density (288.15 K, x2 = 0.1006) of the same compound?
**A.** The mass density was 1122.2 kg/m3.

**Q.** And the mass density (288.15 K, x2 = 0.1948)?
**A.** The mass density was 1120.3 kg/m3.

**Q.** And the mass density (288.15 K, x2 = 0.3026)?
**A.** Its mass density is 1117.7 kg/m3.

**Q.** What about the mass density (288.15 K, x2 = 0.4011) of the same compound?
**A.** Its mass density is 1114.6 kg/m3.

**Q.** What about the mass density (288.15 K, x2 = 0.4979) of the same compound?
**A.** Its mass density is 1110.8 kg/m3.

**Q.** What about the mass density (288.15 K, x2 = 0.6043) of the same compound?
**A.** Its mass density is 1104.8 kg/m3.

**Q.** And the mass density (288.15 K, x2 = 0.6887)?
**A.** Its mass density is 1097.7 kg/m3.

**Q.** What about the mass density (288.15 K, x2 = 0.7981) of the same compound?
**A.** Its mass density is 1083.1 kg/m3.

**Q.** What about the mass density (288.15 K, x2 = 0.9105) of the same compound?
**A.** The mass density was 1053.6 kg/m3.

**Q.** What about the mass density (288.15 K, x2 = 0.9506) of the same compound?
**A.** The mass density was 1035.3 kg/m3.

**Q.** What about the mass density (293.15 K, x2 = 0) of the same compound?
**A.** The mass density was 1120.9 kg/m3.

**Q.** What about the mass density (293.15 K, x2 = 0.1948) of the same compound?
**A.** Its mass density is 1117.2 kg/m3.

**Q.** And the mass density (293.15 K, x2 = 0.3026)?
**A.** Its mass density is 1114.6 kg/m3.

**Q.** And the mass density (293.15 K, x2 = 0.4011)?
**A.** The mass density was 1111.5 kg/m3.

**Q.** What about the mass density (293.15 K, x2 = 0.4979) of the same compound?
**A.** The mass density was 1107.6 kg/m3.

**Q.** What about the mass density (293.15 K, x2 = 0.6043) of the same compound?
**A.** Its mass density is 1101.6 kg/m3.

**Q.** And the mass density (293.15 K, x2 = 0.6887)?
**A.** Its mass density is 1094.4 kg/m3.

**Q.** What about the mass density (293.15 K, x2 = 0.9443) of the same compound?
**A.** The mass density was 1036.3 kg/m3.

**Q.** What about the mass density (293.15 K, x2 = 0.9506) of the same compound?
**A.** Its mass density is 1033 kg/m3.

**Q.** What about the mass density (298.15 K, x1 = 0.0006) of the same compound?
**A.** Its mass density is 997.6 kg/m3.

**Q.** What about the mass density (298.15 K, x1 = 0.0012) of the same compound?
**A.** Its mass density is 998.1 kg/m3.

**Q.** And the mass density (298.15 K, x1 = 0.0018)?
**A.** Its mass density is 998.7 kg/m3.

**Q.** And the mass density (298.15 K, x1 = 0.0024)?
**A.** The mass density was 999.2 kg/m3.

**Q.** What about the mass density (298.15 K, x1 = 0.003) of the same compound?
**A.** Its mass density is 999.7 kg/m3.

**Q.** What about the mass density (298.15 K, x1 = 0.0036) of the same compound?
**A.** The mass density was 1000.2 kg/m3.

**Q.** And the mass density (298.15 K, x2 = 0)?
**A.** Its mass density is 1117.8 kg/m3.

**Q.** What about the mass density (298.15 K, x2 = 0.4011) of the same compound?
**A.** The mass density was 1108.3 kg/m3.

**Q.** What about the mass density (298.15 K, x2 = 0.4979) of the same compound?
**A.** The mass density was 1104.5 kg/m3.

**Q.** What about the mass density (298.15 K, x2 = 0.6043) of the same compound?
**A.** The mass density was 1098.4 kg/m3.

**Q.** What about the mass density (298.15 K, x2 = 0.6887) of the same compound?
**A.** The mass density was 1091.2 kg/m3.

**Q.** And the mass density (298.15 K, x2 = 0.9105)?
**A.** The mass density was 1048 kg/m3.

**Q.** What about the mass density (298.15 K, x2 = 0.9443) of the same compound?
**A.** Its mass density is 1033.8 kg/m3.

**Q.** And the mass density (298.15 K, x2 = 0.9506)?
**A.** Its mass density is 1030.6 kg/m3.

**Q.** And the mass density (303.15 K, x2 = 0)?
**A.** The mass density was 1114.8 kg/m3.

**Q.** What about the mass density (303.15 K, x2 = 0.1006) of the same compound?
**A.** Its mass density is 1113 kg/m3.

**Q.** What about the mass density (303.15 K, x2 = 0.3026) of the same compound?
**A.** The mass density was 1108.4 kg/m3.

**Q.** What about the mass density (303.15 K, x2 = 0.4979) of the same compound?
**A.** The mass density was 1101.3 kg/m3.

**Q.** What about the mass density (303.15 K, x2 = 0.6043) of the same compound?
**A.** The mass density was 1095.2 kg/m3.

**Q.** And the mass density (303.15 K, x2 = 0.9105)?
**A.** The mass density was 1045.2 kg/m3.

**Q.** And the mass density (303.15 K, x2 = 0.9443)?
**A.** Its mass density is 1031.2 kg/m3.

**Q.** And the mass density (303.15 K, x2 = 0.9506)?
**A.** Its mass density is 1028.1 kg/m3.

**Q.** What about the mass density (308.15 K, x1 = 0.0006) of the same compound?
**A.** The mass density was 994.5 kg/m3.

**Q.** And the mass density (308.15 K, x1 = 0.0012)?
**A.** Its mass density is 995 kg/m3.

**Q.** What about the mass density (308.15 K, x1 = 0.0024) of the same compound?
**A.** The mass density was 996 kg/m3.

**Q.** What about the mass density (308.15 K, x1 = 0.003) of the same compound?
**A.** Its mass density is 996.5 kg/m3.

**Q.** And the mass density (308.15 K, x1 = 0.0036)?
**A.** Its mass density is 997 kg/m3.

**Q.** What about the mass density (308.15 K, x2 = 0.4011) of the same compound?
**A.** Its mass density is 1102.1 kg/m3.

**Q.** What about the mass density (308.15 K, x2 = 0.4979) of the same compound?
**A.** The mass density was 1098.2 kg/m3.

**Q.** What about the mass density (308.15 K, x2 = 0.9105) of the same compound?
**A.** Its mass density is 1042.3 kg/m3.

**Q.** What about the mass density (308.15 K, x2 = 0.9443) of the same compound?
**A.** Its mass density is 1028.6 kg/m3.

**Q.** What about the mass density (308.15 K, x2 = 0.9506) of the same compound?
**A.** The mass density was 1025.5 kg/m3.

**Q.** What about the mass density (313.15 K, x2 = 0) of the same compound?
**A.** Its mass density is 1108.7 kg/m3.

**Q.** What about the mass density (313.15 K, x2 = 0.1948) of the same compound?
**A.** The mass density was 1104.9 kg/m3.

**Q.** And the mass density (313.15 K, x2 = 0.3026)?
**A.** Its mass density is 1102.3 kg/m3.

**Q.** And the mass density (313.15 K, x2 = 0.4011)?
**A.** The mass density was 1099 kg/m3.

**Q.** What about the mass density (313.15 K, x2 = 0.4979) of the same compound?
**A.** Its mass density is 1095.1 kg/m3.

**Q.** What about the mass density (313.15 K, x2 = 0.6043) of the same compound?
**A.** Its mass density is 1088.8 kg/m3.

**Q.** What about the mass density (313.15 K, x2 = 0.6887) of the same compound?
**A.** Its mass density is 1081.6 kg/m3.

**Q.** What about the mass density (313.15 K, x2 = 0.9443) of the same compound?
**A.** Its mass density is 1025.8 kg/m3.

**Q.** And the mass density (318.15 K, x1 = 0.0006)?
**A.** The mass density was 990.7 kg/m3.

**Q.** And the mass density (318.15 K, x1 = 0.0012)?
**A.** The mass density was 991.2 kg/m3.

**Q.** And the mass density (318.15 K, x1 = 0.0018)?
**A.** The mass density was 991.6 kg/m3.

**Q.** What about the mass density (318.15 K, x1 = 0.0024) of the same compound?
**A.** Its mass density is 992.1 kg/m3.

**Q.** What about the mass density (318.15 K, x1 = 0.003) of the same compound?
**A.** Its mass density is 992.5 kg/m3.

**Q.** And the mass density (318.15 K, x1 = 0.0036)?
**A.** Its mass density is 993 kg/m3.

**Q.** What about the mass density (318.15 K, x2 = 0.4011) of the same compound?
**A.** Its mass density is 1095.9 kg/m3.

**Q.** And the mass density (318.15 K, x2 = 0.4979)?
**A.** Its mass density is 1091.9 kg/m3.

**Q.** And the mass density (318.15 K, x2 = 0.6887)?
**A.** Its mass density is 1078.4 kg/m3.

**Q.** And the mass density (318.15 K, x2 = 0.9105)?
**A.** The mass density was 1036.2 kg/m3.

**Q.** And the mass density (318.15 K, x2 = 0.9443)?
**A.** The mass density was 1023 kg/m3.

**Q.** What about the mass density (318.15 K, x2 = 0.9506) of the same compound?
**A.** The mass density was 1020 kg/m3.
